Experiments:
[1] = target: T1, shFcRn-HIS (shFcRn with a 6-His tail on the C-terminus of beta-2-microglobulin) (human, UniProt P55899 partial chain; P61769 partial chain); experiment: SPR (Biacore 3000), albumin over immobilized shFcRn-HIS, pH 5.5, 25 C
[2] = target: T1, shFcRn-HIS (shFcRn with a 6-His tail on …); experiment: SPR (Biacore 3000), albumin over immobilized shFcRn-HIS, pH 5.5, 25 C; second row for this variant

T1 sequence (P55899 24-290 limits assumed, chain 1 of 2): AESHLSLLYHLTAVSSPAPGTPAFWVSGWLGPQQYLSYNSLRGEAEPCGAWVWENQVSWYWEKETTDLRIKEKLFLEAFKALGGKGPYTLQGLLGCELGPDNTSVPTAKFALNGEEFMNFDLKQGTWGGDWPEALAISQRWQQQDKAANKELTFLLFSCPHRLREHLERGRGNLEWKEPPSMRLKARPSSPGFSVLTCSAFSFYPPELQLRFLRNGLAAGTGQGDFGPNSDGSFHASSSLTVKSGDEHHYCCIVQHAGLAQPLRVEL
T1 sequence (P61769 other isoform, or with tags, fused parts or gaps limits assumed, chain 2 of 2, further chain): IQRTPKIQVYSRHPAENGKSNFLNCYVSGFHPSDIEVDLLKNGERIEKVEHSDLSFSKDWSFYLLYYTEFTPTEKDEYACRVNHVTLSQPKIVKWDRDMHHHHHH

Fold difference relative to WT HSA [1] [fold] | Fold difference relative to WT HSA [2] [fold] | Binder
1.1 | 1 | HSA L345E (ligand) not shown
1.6 | 2.2 | HSA V381G (ligand) not shown
4.3 | 4.3 | HSA L349F (ligand) not shown
1.9 | 1.8 | HSA S342Y (ligand) not shown
